# Experimental data reported in PubChem BioAssay AID1745845 (National Center for Advancing Translational Sciences (NCATS), 2022).
# In all, about 360,000 compounds went through this assay and about 2,600 (0.72%) were called active. Inconclusive means that the source gave no clear call. Such entries were picked first, then a sample of the others. Calls come from the whole dose curve; as a rule, active = well fitted inhibition curve with a large enough effect; inconclusive = small, poorly fitted or top-dose-only effect; inactive = no such curve, though single readings can be large or run the other way. Where the call is inconclusive, the potency comes from a doubtful curve fit.
# Assay: Primary qHTS for Inhibitors of ATXN expression; note: nearly all actives have a fitted effect of over 55% in size
# Settings: HEK-293 ATXN2-luciferase reporter, luminescence, 24 h; series mostly up to 57 µM
# How it was run: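 qHTS (up to 57 uM final) was run with 24 h compound exposure of reporter cells at 37 °C. Each well was multiplexed: SteadyGlo luminescence measured ATXN2-luciferase expression after a fluorogenic Gly-Phe-AFC viability readout (25 uM final).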
# Potency is the fitted concentration of half-maximal effect; tags give direction and shape of the fitted curve.
row,Structure (SMILES),Potency
1,Cc1ccc(CCC(=O)Nc2nccs2)o1,inactive
2,CC(=O)Nc1cc(OC(C)=O)c2nonc2c1OC(C)=O,"inconclusive: 25.1 µM [inhibitor, single point]"
3,Cc1c2c(cc3c1[nH]c1ccccc13)C=NCC2,"inconclusive: 12.6 µM [inhibitor, partial curve]"
4,Cc1cc(C)c(C(=O)COC(=O)c2nn(C)c(=O)c3ccccc23)cc1C,inactive
5,CN(C)CCOC1=Cc2ccccc2Sc2ccc(Cl)cc21,"inconclusive: 28.2 µM [inhibitor, partial curve, poor fit]"
6,Cc1cc2c(N=O)c(NO)ccc2[nH]1,"inconclusive: 25.1 µM [inhibitor, partial curve, poor fit]"
7,NS(=O)(=O)c1ccc(N/N=C/c2cn(-c3ccccc3)nc2-c2cccs2)c([N+](=O)[O-])c1,"inconclusive: 23.8 µM [inhibitor, partial curve, poor fit]"
8,COc1cc(CNC(=O)Nc2nc(C(N)CCc3ccccc3)cs2)cc(OC)c1OC (stereo not drawn),"inconclusive: 31.6 µM [inhibitor, single point]"
9,O=C(c1cc(-c2ccc(Cl)cc2)n(-c2ccc(Cl)cc2)n1)N1CCOCC1,inactive
10,CCOc1ccc(-c2nnc3sc(COc4ccc(C)cc4)nn23)cc1,"inconclusive: 0.112 µM [inhibitor, full curve, poor fit]"
11,COc1ccc(-c2ccc(CN3C(CC(C)C)C(=O)N(Cc4cn(CC5CCCCC5)nn4)CCS3(=O)=O)cc2)cn1 (stereo not drawn),"inconclusive: 14.1 µM [inhibitor, partial curve, poor fit]"
12,COC(=O)c1ccccc1NC(=O)CSc1nc2ccccc2nc1Cc1ccccc1OC,inactive
13,CCC(C)N1C(=O)S/C(=C/c2ccc(Sc3nc4ccccc4[nH]3)o2)C1=O (stereo not drawn),"inconclusive: 39.8 µM [inhibitor, single point]"
14,CC(C)C(N)c1csc(NC(=O)Nc2cccc(Cl)c2)n1 (stereo not drawn),"inconclusive: 39.8 µM [inhibitor, single point]"
15,Cc1ccc2ncc(C(=O)Nc3ccc(F)cc3F)c(=O)n2c1,inactive
16,CC(=NNC(=S)N1CCCCCC1)c1cccc2cccnc12,"inconclusive: 6.7 µM [inhibitor, partial curve]"
17,CC(C)(C)S(=O)(=O)N1C[C@@H]2C(=CC[C@H]3C(=O)N(c4ccccc4)C(=O)[C@@H]23)[C@@H]1CCO,inactive
18,COc1ccc(NC(=O)C(C)n2nc(-c3ccc(C)c(C)c3)ccc2=O)cc1OC (stereo not drawn),inactive
19,O=c1c2ccc(Cl)cc2nc(-c2ccc([N+](=O)[O-])cc2)n1O,"inconclusive: 31.6 µM [inhibitor, partial curve, poor fit]"
20,N#Cc1c(-c2ccccc2)c(-c2ccccc2)nn(CC(=O)NNC(=O)Nc2ccc(Cl)c(Cl)c2)c1=O,"inconclusive: 35.5 µM [inhibitor, single point]"
21,Cc1nc2ccccc2n1Cc1ccc(Br)cc1,"inconclusive: 7.08 µM [inhibitor, partial curve, poor fit]"
22,CCOC(=O)Cc1csc(NC(=O)c2c(-c3c(Cl)cccc3Cl)noc2C)n1,"inconclusive: 31.6 µM [inhibitor, partial curve, poor fit]"

row,Structure (SMILES),Potency
1,CCN(CC)S(=O)(=O)c1ccc(N2CCN(c3ccccc3OC)CC2)c(N)c1,"inconclusive: 4.47 µM [inhibitor, partial curve, poor fit]"
2,Cc1c(CCC(=O)NCCc2ccc(Cl)cc2)c(=O)oc2c(C)c(O)ccc12,inactive
3,COc1ccc(Cc2c(-c3ccco3)nc3ccc(Br)cn23)c(C)c1,"inconclusive: 25.1 µM [inhibitor, single point]"
4,NC1=C(Cl)C(=O)c2ccc(S(N)(=O)=O)cc2C1=O,active: 3.55 µM
5,CNC(=O)[C@H](CC1=CN=C2C=CCC=C12)NC(=O)[C@@H](CC(=O)NO)CC(C)C,active: 0.0172 µM
6,CCC(C)N1C(=O)c2ccccc2C1C(=O)NC1CCCCCC1 (stereo not drawn),inactive
7,Cn1c(=O)oc2cc(S(=O)(=O)N3CCCC(C(=O)NC4CCCc5ccccc54)C3)ccc21 (stereo not drawn),"inconclusive: 5.01 µM [inhibitor, partial curve]"
8,COc1ccc2[nH]c3c(C)c4ccncc4c(C)c3c2c1,active: 2 µM
9,O=[N+]([O-])c1cccnc1N1CCC(c2cc(-c3ccc(Cl)cc3)n[nH]2)CC1,"inconclusive: 28.2 µM [inhibitor, single point]"
10,c1ccc(C2=NNC(=NC3CC3)SC2)cc1,"inconclusive: 10 µM [inhibitor, partial curve, poor fit]"
11,COc1ccc(N2CCN(CCCNC(=O)c3cc(Nc4ccc(OC)cc4OC)nc4ccccc34)CC2)cc1,"inconclusive: 22.4 µM [inhibitor, single point]"
12,COC(=O)C1=C(C)N(c2ccc(Cl)c(Cl)c2)C(=O)C1,"inconclusive: 28.2 µM [inhibitor, single point]"
13,CCS(=O)(=O)NC(C)C(c1cccs1)N1CCN(c2ccc(OC)cc2)CC1 (stereo not drawn),inactive
14,CCN(CC)S(=O)(=O)c1ccc(C(=O)NNc2nc(-c3ccccc3)c3cc(Br)ccc3n2)cc1,inactive
15,CC(C)Nc1nc(Cl)nc(NNC(=O)C(C)Oc2ccccc2)n1 (stereo not drawn),inactive
16,O=C(NCc1cccnc1)C(=O)NCC(c1ccco1)N1CCN(c2ccc(F)cc2)CC1 (stereo not drawn),inactive
17,CC1CCN(C(=O)c2ccc([N+](=O)[O-])o2)CC1,inactive
18,COc1ccc(C(=O)NC(=S)NNC(=O)c2ccc(NC(=O)C(C)C)cc2)cc1,"inconclusive: 14.1 µM [inhibitor, partial curve, poor fit]"
19,CC1(C(=O)NS(=O)(=O)c2ccc(Cl)cc2)CCN1C(=O)C/C=C/c1ccccc1 (stereo not drawn),"inconclusive: 25.1 µM [inhibitor, partial curve, poor fit]"
20,COc1ccc2c(c1)C(=O)[C@@H](O)[C@H](c1ccc(OC)c(Br)c1)O2,inactive
21,COc1ccc(CN2CCC2(C)C(=O)Nc2cccc(NS(C)(=O)=O)c2)c2ccccc12 (stereo not drawn),"inconclusive: 31.6 µM [inhibitor, single point]"
